Values marked as one replicate rest on one cluster of the flow cell; about a third of the high ones do not repeat.
Test system: ATP
Test: switch fluorescence ratio, 500 uM ATP over buffer (Cy3 cluster intensity, sum of 5 cycles each) (fold (ratio)); higher = stronger signal-on switching upon ATP binding; sequences stand for … in TCGTCGGCAGCGTCAGATGTGTATAAGAGACAGTTTTTTTTTTTTTTTTTTTTTTTTT…TC
Conditions: aptamer strand: ATP DNA aptamer (quencher-CACCTGGGGGAGTATTGCGGAGGAAGG + anchor), 100 nM annealed; ATP concentration: 500 uM; one replicate
How it was run: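 Exposure to 500 uM ATP lasted 15 min at 22 °C before imaging, and a selection-buffer image was taken beforehand, for Cy3-labelled switching-strand clusters on a modified Illumina MiSeq flow-cell annealed to 100 nM quencher-labelled ATP aptamer. Five buffer/ATP cycles were run with NaOH stripping and re-annealing between them. The fluorescence ratio per cluster is summed target-cycle over summed buffer-cycle Cy3 intensity, averaged per switch-domain sequence. Clusters outside 100-1000 RFU were excluded.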

CGCTAAGGTA
switch fluorescence ratio: 0.996

GTCACTCATC
switch fluorescence ratio: 1.07

ATTTCAGTTA
switch fluorescence ratio: 0.998

AAATAGACTC
switch fluorescence ratio: 1.05

CTTGTCGTTG
switch fluorescence ratio: 0.98

TAAAAGTTGT
switch fluorescence ratio: 0.971

TGCATTATC
switch fluorescence ratio: 3.54

GGGTTCAGC
switch fluorescence ratio: 1.02

TCCTTCGAAG
switch fluorescence ratio: 1.25

CTTAGGCAGT
switch fluorescence ratio: 0.998

TTAAGTGTAT
switch fluorescence ratio: 0.994

ATTGATTATC
switch fluorescence ratio: 0.973

CTAGATCGGC
switch fluorescence ratio: 0.979

GCCAGAAGAA
switch fluorescence ratio: 0.973

ATACGGGGAA
switch fluorescence ratio: 1.03

TCTGGCTCAC
switch fluorescence ratio: 1.03

TCTTATGCAG
switch fluorescence ratio: 0.944

GGTCCTCAGG
switch fluorescence ratio: 1.23

CGGGTTTGCC
switch fluorescence ratio: 0.959

GTCTCGTG
switch fluorescence ratio: 0.937

TTGCTCGCTT
switch fluorescence ratio: 0.99

GGAAGGGAAT
switch fluorescence ratio: 1.02

AAAACTCGTT
switch fluorescence ratio: 0.916

ACCAGAGCAA
switch fluorescence ratio: 4.27

TTCTGTCCG
switch fluorescence ratio: 0.98

GGTCACGAGC
switch fluorescence ratio: 1.02

TGATGATTCT
switch fluorescence ratio: 1.02

GTAATTGGCA
switch fluorescence ratio: 0.993

ACTTTTTTCG
switch fluorescence ratio: 1.09

ATATGCTTGT
switch fluorescence ratio: 0.973

ATTTTTTGC
switch fluorescence ratio: 0.945

GGCAGGATGG
switch fluorescence ratio: 0.995

GTTCACCTCA
switch fluorescence ratio: 1.01

GATGTAGATG
switch fluorescence ratio: 0.988

AGTGTATGCG
switch fluorescence ratio: 1.14

ATCTACTCTT
switch fluorescence ratio: 1

AATCTTTGTC
switch fluorescence ratio: 0.966

CCTGCTTTT
switch fluorescence ratio: 1.01

AGGACGTCGC
switch fluorescence ratio: 1.02

TTACGGGATT
switch fluorescence ratio: 1.01

GTACTTCCTA
switch fluorescence ratio: 1.08

CCGGCAGAG
switch fluorescence ratio: 0.976

TCTAGTTCTG
switch fluorescence ratio: 1.02

GAAAGTGTTA
switch fluorescence ratio: 0.996

GCGGAACTAA
switch fluorescence ratio: 0.973

GTTTATGGGA
switch fluorescence ratio: 0.963

TCCCTATATT
switch fluorescence ratio: 1.36

CCCCTTAGC
switch fluorescence ratio: 1.09

CATAGTGGGA
switch fluorescence ratio: 0.956

GTATCACAGT
switch fluorescence ratio: 0.983

AGCTGCGCTC
switch fluorescence ratio: 0.999

AGGCAGGTCT
switch fluorescence ratio: 1

ATCATGAGTG
switch fluorescence ratio: 1.04

CTGATTCTCT
switch fluorescence ratio: 1.02

AAAGTGAGTT
switch fluorescence ratio: 1.01

AAGTCGTTGG
switch fluorescence ratio: 0.985

GAAGTTCTTT
switch fluorescence ratio: 1.02

AGTCTTAAGA
switch fluorescence ratio: 0.942

ACACTGGGGG
switch fluorescence ratio: 0.993

AGGATTATTA
switch fluorescence ratio: 0.996

GTCTCAAGAA
switch fluorescence ratio: 0.971

CGAGTTCCTC
switch fluorescence ratio: 1.01

CACACTGCGT
switch fluorescence ratio: 1.06

GGTGGGGGA
switch fluorescence ratio: 1.04

AGTGCTCAGT
switch fluorescence ratio: 0.986

TTATTAGACA
switch fluorescence ratio: 1.04

CAAGAGAGCT
switch fluorescence ratio: 0.978

CATATTTAAG
switch fluorescence ratio: 1.01

ACCTCTAGTT
switch fluorescence ratio: 1.05

ATAGTATTGG
switch fluorescence ratio: 0.997

AAGGTAGGCA
switch fluorescence ratio: 1.01

GCTTTTGACT
switch fluorescence ratio: 1

TGAGAGGTAG
switch fluorescence ratio: 0.955

TGCAACTGAG
switch fluorescence ratio: 1.1

GGGATGCCCG
switch fluorescence ratio: 0.938

TTTATTGCC
switch fluorescence ratio: 1.01

ATCGGGGAGC
switch fluorescence ratio: 1

AATCCCACAT
switch fluorescence ratio: 1.02

GCTAGAGGAT
switch fluorescence ratio: 0.996

ATAGACGTTG
switch fluorescence ratio: 0.977

CAATCCGGGT
switch fluorescence ratio: 0.938

TGCCGCCCAT
switch fluorescence ratio: 1.96

TACAACTGTA
switch fluorescence ratio: 1.01

CTACTCACGC
switch fluorescence ratio: 1.38

TATGAGGTTA
switch fluorescence ratio: 1.03

CAACCCCTTC
switch fluorescence ratio: 1.09

CGGGAAAAG
switch fluorescence ratio: 1.02

ATGTAACATA
switch fluorescence ratio: 0.985

CTTTTTGATC
switch fluorescence ratio: 1.04

CCAGGATACC
switch fluorescence ratio: 1.05

GATTCATTTT
switch fluorescence ratio: 1.03

ATGTACGGAG
switch fluorescence ratio: 0.997

CGTCTTTCTG
switch fluorescence ratio: 0.954

CCGGCGCGGA
switch fluorescence ratio: 1.59

CTGGGCTTCT
switch fluorescence ratio: 1.21

CGGGCCATGC
switch fluorescence ratio: 1.09

ATTTCTATAC
switch fluorescence ratio: 0.995

GGACGCCGGT
switch fluorescence ratio: 0.949

AAAAATTCGG
switch fluorescence ratio: 0.92

GCTCTAACGG
switch fluorescence ratio: 0.966

TTAATCATCC
switch fluorescence ratio: 1.05

GGCAGTTGAC
switch fluorescence ratio: 0.987

AATTCAGGG
switch fluorescence ratio: 0.995

TATCGAAACT
switch fluorescence ratio: 1

TATAGAGTTG
switch fluorescence ratio: 1.04

TCAGCGGGTC
switch fluorescence ratio: 0.961

TAGCCACTTG
switch fluorescence ratio: 1.17

GATATGACGG
switch fluorescence ratio: 0.984

CTCGAAGTTC
switch fluorescence ratio: 1.08

ATCGGCAGTA
switch fluorescence ratio: 1.13

CTCGTTGATG
switch fluorescence ratio: 1.04

CATCAGAGAG
switch fluorescence ratio: 1

AAGGAAATAA
switch fluorescence ratio: 0.984

TAAGCAGGTA
switch fluorescence ratio: 1.04

TCAAAGATCT
switch fluorescence ratio: 0.982

CTATCTGCAT
switch fluorescence ratio: 1.41

GCCGAAGCCT
switch fluorescence ratio: 1.56

TAGCTGACTT
switch fluorescence ratio: 0.986

AGATAGCTTT
switch fluorescence ratio: 0.924

GATAGAATCA
switch fluorescence ratio: 0.974

GAAGTCTAGT
switch fluorescence ratio: 0.944

TGATTAATTC
switch fluorescence ratio: 1

ACGGCGGACT
switch fluorescence ratio: 0.994

ATCGTGTGTA
switch fluorescence ratio: 1

TATGAAAATT
switch fluorescence ratio: 1

GCATCACGCC
switch fluorescence ratio: 1.13

GTTCAGGTGT
switch fluorescence ratio: 2.53

AGAGTTCGTC
switch fluorescence ratio: 0.92

AGTTCACACA
switch fluorescence ratio: 1.05

AAATAAGTGG
switch fluorescence ratio: 0.969

ACACGCGGCT
switch fluorescence ratio: 1.15

ATATCGGACT
switch fluorescence ratio: 0.973

GCATCAGTAG
switch fluorescence ratio: 1.04

GTTAGCTTAT
switch fluorescence ratio: 1.03

TGGGCTTGTA
switch fluorescence ratio: 0.972

TTGGGTCTA
switch fluorescence ratio: 1.01

CTACTACACA
switch fluorescence ratio: 1.36

TAAGGTAACC
switch fluorescence ratio: 1.02

GCCGTGTAAA
switch fluorescence ratio: 1.02

CAACATATTA
switch fluorescence ratio: 1.01

GCGGTTGTGG
switch fluorescence ratio: 1.02

TACCTACACA
switch fluorescence ratio: 1.19

TAACTGAATC
switch fluorescence ratio: 1.06

CGGGGTGT
switch fluorescence ratio: 1.06

GAAAGAATTT
switch fluorescence ratio: 1.02

CGCGTTCATG
switch fluorescence ratio: 1.02

ACAGGGTATT
switch fluorescence ratio: 1.03

GGACTGTTTT
switch fluorescence ratio: 0.965

TCGTTAATCG
switch fluorescence ratio: 0.994

TTATATTGAG
switch fluorescence ratio: 0.995

AGAATCGCGT
switch fluorescence ratio: 1.04

AAAGATCTT
switch fluorescence ratio: 0.996

GTAAAAGGGA
switch fluorescence ratio: 0.952

GATAAATGT
switch fluorescence ratio: 1.02

AGGGCCGTCG
switch fluorescence ratio: 0.999

GATTAACCCC
switch fluorescence ratio: 1.23

GTCAGAGCAC
switch fluorescence ratio: 1.09

GAACGGTACA
switch fluorescence ratio: 1.46

ATAATGGTAC
switch fluorescence ratio: 1.07

TCGCCCAAAT
switch fluorescence ratio: 1.17

TCTCCTGTTC
switch fluorescence ratio: 1.07

AGGTGTCGTG
switch fluorescence ratio: 0.998

GGCACGGGTG
switch fluorescence ratio: 1.24

CGGGCAGACG
switch fluorescence ratio: 1.06

GCGAACGTAA
switch fluorescence ratio: 3.84

TGATGACATC
switch fluorescence ratio: 0.975

CACGCCTTAC
switch fluorescence ratio: 4.65

GGAGTGGAC
switch fluorescence ratio: 0.977

CATCCTGCCC
switch fluorescence ratio: 1.52

CGGACCCCGT
switch fluorescence ratio: 1.08

TTCCGTACAA
switch fluorescence ratio: 3.89

CTCATTGGCG
switch fluorescence ratio: 0.994

AGGTGCACA
switch fluorescence ratio: 0.977

TTAGTGTGC
switch fluorescence ratio: 0.982

TTGACTTAGT
switch fluorescence ratio: 1.02

ATTACCAGCG
switch fluorescence ratio: 1.02

TAACGCTATA
switch fluorescence ratio: 1.73

TGTAAAACAG
switch fluorescence ratio: 1

TACTTCCCGT
switch fluorescence ratio: 1.18

CCTAAGCAGC
switch fluorescence ratio: 2.53

TGTCCGAGAC
switch fluorescence ratio: 1.06

TTAGACTAGT
switch fluorescence ratio: 0.971

GATGTATTCT
switch fluorescence ratio: 1.01

AAACGGGAAT
switch fluorescence ratio: 1.02

TCCGATCTCG
switch fluorescence ratio: 1.08

GCGTGCGATA
switch fluorescence ratio: 1.04

AGAGTAATTT
switch fluorescence ratio: 0.997

CCCGTACCCA
switch fluorescence ratio: 1.08

ATGTGCGCTC
switch fluorescence ratio: 1.01

CACGGAGGG
switch fluorescence ratio: 0.965

AACACGTAGA
switch fluorescence ratio: 1.1

ATCCCCTTTT
switch fluorescence ratio: 0.981

AGAGGTATAT
switch fluorescence ratio: 0.995

AGGATGGAAG
switch fluorescence ratio: 1.02

ATGATCTTAT
switch fluorescence ratio: 1.01

TAACTTGGTG
switch fluorescence ratio: 1.03

CAGAGGTATA
switch fluorescence ratio: 0.989

GCGATTACGG
switch fluorescence ratio: 1.04

TGCGACGTCG
switch fluorescence ratio: 0.978

GCGCTCCGTT
switch fluorescence ratio: 1.16

CACAAAGAAT
switch fluorescence ratio: 0.966

From the supplement of paper PMC10126150
